In all, about 43,000 compounds went through this assay and about 200 (0.47%) were called active. Not shown: some 12% with an inconclusive outcome. The call rests on the fitted dose curve; in most records, active means well fitted cell-killing curve with a large enough effect; inconclusive means small, poorly fitted or top-dose-only effect, or effect the other way; inactive means flat fitted curve, though single readings scatter. Some of the results follow.
assay: Cell viability qHTS assay in S16 Pmp22-F2sN cells; conditions: S16 Pmp22-F2sN Schwann cells viability, CellTiter-Glo, 24 h; series mostly up to 57.5 µM; activity change, negative = cytotoxicity: at the top concentration; further: nearly all actives have a fitted effect of over 65% in size
Outline: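 S16 Pmp22-F2sN Schwann cells (500-1,000/well) in phenol-red-free DMEM with 10% FBS received 23 nL compound by pin tool for 24 h at 37 °C. Viability was then read as CellTiter-Glo luminescence after 15 min at room temperature.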
On the % scale 0 is the no-effect control and ±100 the full control effect.

SMILES	activity change, negative = cytotoxicity
Cc1ccc(S(=O)(=O)NCCc2csc3nc(-c4ccccc4C)nn23)cc1	inactive: 6.73%
O=C(CSc1nc2ccsc2c(=O)n1Cc1ccccc1Cl)NCc1ccc(Cl)cc1	inactive: 11.5%
O=C(CSc1nc2ccccc2n1Cc1c(F)cccc1Cl)N1CCN(c2ccc(F)cc2)CC1	inactive: 1.41%
CCOc1cc(CNC(=O)c2ccc3nc(CCc4ccccc4)oc3c2)ccc1OC	inactive: -5.5%
COc1ccc(NC(=O)CN2C(=O)C3(SCC(=O)N3c3cccc(OC)c3)c3ccccc32)cc1 (configuration not stated)	inactive: 7.57%
COc1ccc(N2CC(NC(=O)c3c(F)cccc3Cl)CC2=O)cc1OC (configuration not stated)	inactive: 16.4%
CCC(C(=O)N1CCN(c2ccccc2)CC1)n1nc(C)c2sc3ccccc3c2c1=O (configuration not stated)	inactive: 0.644%
Cc1ccccc1NC(=O)c1cnc2sc(N3CCCC3)nn2c1=O	inactive: 3.05%
O=C(Nc1nnc(SCc2cc(=O)n3cc(Cl)ccc3n2)s1)c1cccc(F)c1	inactive: 13.3%
O=C(c1ccc2c(Cl)c3c(nc2c1)CCCC3)N1CCN(c2ccccc2F)CC1	inactive: 3.92%
COc1cccc(N2CC(NC(=O)C3CC3)CC2=O)c1 (configuration not stated)	inactive: 2.78%
CC1=C(C(=O)Nc2cccc(C(F)(F)F)c2)C(c2ccccc2)n2ncnc2N1 (configuration not stated)	inactive: 12.7%
CCc1cccc(C)c1NC(=O)CCn1nc(C)c2c(C)n(-c3ccccc3)nc2c1=O	inactive: -2.87%
COc1ccc(NC(=O)Cc2noc3ccc(C)cc23)cc1Cl	inactive: -9.36%
CCOC(=O)c1c(S(=O)(=O)N2CCC(C(=O)Nc3cccc(C)n3)CC2)c(C)n(C)c1C	inactive: 11.5%
CCC(C)NC(=O)Cn1c(=O)ccc2cc(S(=O)(=O)N3CCCC3)ccc21 (configuration not stated)	inactive: 16.8%
CCCN(C(=O)c1cc2c(=O)oc3ccccc3c2s1)c1ccccc1C	inactive: -1.11%
Cc1ccc(NC(=O)Cn2nnc(C(=O)NCCc3ccccc3)c2N)cc1Cl	inactive: -0.793%
CCc1ccc2c(c1)c(=O)c(S(=O)(=O)c1ccccc1)cn2CC(=O)Nc1ccc(OC)cc1	inactive: 2.7%
COCC(=O)N1c2nc(-c3ccco3)nn2C2(CCCCC2)[C@@H]2CCCC[C@@H]21	inactive: -9.94%
CCOc1ccc2c(c1)c(=O)c(C(=O)c1ccc(CC)cc1)cn2CC(=O)Nc1ccccc1C	inactive: -4.33%
Cc1ccc(C)c(N2CCN(c3nc4c(S(=O)(=O)c5ccccc5)nnn4c4ccc(Cl)cc34)CC2)c1	inactive: 7.69%
Cc1cccc(NC(=O)C2CCCN(c3nc4ccccc4s3)C2)c1C (configuration not stated)	inactive: 12.8%
CCOC(=O)C1CCCN(C(=O)Cn2nc(CC)n3c(cc4occc43)c2=O)C1 (configuration not stated)	inactive: 21%

SMILES	activity change, negative = cytotoxicity
CC(=O)c1ccc(N2C(=O)N(Cc3cc(C)ccc3C)c3ccccc3S2(=O)=O)cc1	inactive: 24%
O=S(=O)(Nc1ccc(Cl)cc1)c1cccc(S(=O)(=O)c2ccc(Cl)c(Cl)c2)c1	inactive: 2.59%
Cc1ccc(CCNC(=O)c2ccc(CS(=O)(=O)Cc3ccccc3F)o2)cc1	inactive: -0.502%
CCOc1ccccc1NC(=O)CN1C=NS(=O)(=O)c2ccccc21	inactive: 3.62%
COc1cccc2cc(-c3nc(-c4ccc(C)cc4)c(C)s3)c(=O)oc12	inactive: 13.5%
Cc1ccc(C(=O)Nc2ccc3nc(N4CCCCC4)cc(C)c3c2)cc1F	inactive: -23%
Cc1ccc(NC(=O)CCNS(=O)(=O)c2ccc3c(c2)CCCC(=O)N3)cc1	inactive: 13.4%
COc1ccc2c(c1)c1c(c(=O)n(-c3ccccc3C)c(=O)n1Cc1c(F)cccc1Cl)n2C	inactive: -3.03%
CCOC(=O)C1(C)C=C(Nc2ccc(C(=O)O)cc2)C(=O)N1c1ccc(C(=O)O)cc1 (configuration not stated)	inactive: -5.6%
CCCCN(C)C(=O)Cn1c(SCC(=O)Nc2ccc(C)c(C)c2)nc2ccccc21	inactive: -17.7%
Cc1nc2ccccc2n1CCc1nc2c3ccccc3nc(SCc3ccc(F)cc3)n2n1	inactive: 10.5%
CCOC(=O)c1c(C)oc2nc(C)nc(NCC3CCN(Cc4cccc(Cl)c4)CC3)c12	inactive: -0.0664%
Cc1cc(C)c(OCC(=O)N(Cc2cccc(F)c2)Cc2ccco2)c(C)c1	inactive: -13.9%
CC(=O)N1CCc2cc(S(=O)(=O)NC(Cc3ccccc3)C(=O)Nc3ccc(Cl)cc3)ccc21 (configuration not stated)	inactive: -5.21%
CCc1nn(CC(=O)N2CCN(c3cccc(C(F)(F)F)c3)CC2)c(=O)c2cccn12	inactive: -4.83%
CCOC(=O)c1ccc(NS(=O)(=O)c2ccc3[nH]c4c(c3c2)CCCCC4)cc1	inactive: -1.59%
Cc1oc(-c2ccc(C(=O)Nc3ccccc3F)cc2)nc1COc1ccccc1	inactive: 2.86%
CCOc1ccccc1NC(=O)Cn1c2ncccc2c(=O)n1-c1ccc(C)c(C)c1	inactive: 5.55%
CCc1ccc2nc(N3CCN(C(=O)C4CC4)CC3)sc2c1	inactive: -1.12%
CC(=O)N1CCCc2cc(S(=O)(=O)Nc3ccc(C)c(F)c3)ccc21	inactive: -2.06%
Cc1oc2c(c(C)cc3oc(=O)c(CC(=O)NCc4ccc(F)cc4)c(C)c32)c1C	inactive: 13.3%
Cc1cccc(C)c1NC(=O)CN1C(=O)c2cccc3cccc1c23	inactive: 2.23%
CCOc1ccc(NC(=O)CN2C(=O)C3(SCC(=O)N3c3ccc(F)cc3)c3ccccc32)cc1 (configuration not stated)	inactive: -3.65%
